Data from publication PMC4336329 (PLoS ONE, 2015).
Out of some 310,000 compounds screened, about 14,000 (4.5%) showed an effect of 50% or more. Effects have a minus sign here. Some of the results follow.
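Also: peak tail current of the secondary pulse compared with the same well before compound.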

These compounds were tested against human ether-à-go-go-related gene (hERG) potassium channel (human, UniProt Q12809) (assay: primary screen, population patch clamp on CHO cells stably expressing hERG).
Sequence of human ether-à-go-go-related gene (hERG) potassium channel (Q12809 whole entry, looked up): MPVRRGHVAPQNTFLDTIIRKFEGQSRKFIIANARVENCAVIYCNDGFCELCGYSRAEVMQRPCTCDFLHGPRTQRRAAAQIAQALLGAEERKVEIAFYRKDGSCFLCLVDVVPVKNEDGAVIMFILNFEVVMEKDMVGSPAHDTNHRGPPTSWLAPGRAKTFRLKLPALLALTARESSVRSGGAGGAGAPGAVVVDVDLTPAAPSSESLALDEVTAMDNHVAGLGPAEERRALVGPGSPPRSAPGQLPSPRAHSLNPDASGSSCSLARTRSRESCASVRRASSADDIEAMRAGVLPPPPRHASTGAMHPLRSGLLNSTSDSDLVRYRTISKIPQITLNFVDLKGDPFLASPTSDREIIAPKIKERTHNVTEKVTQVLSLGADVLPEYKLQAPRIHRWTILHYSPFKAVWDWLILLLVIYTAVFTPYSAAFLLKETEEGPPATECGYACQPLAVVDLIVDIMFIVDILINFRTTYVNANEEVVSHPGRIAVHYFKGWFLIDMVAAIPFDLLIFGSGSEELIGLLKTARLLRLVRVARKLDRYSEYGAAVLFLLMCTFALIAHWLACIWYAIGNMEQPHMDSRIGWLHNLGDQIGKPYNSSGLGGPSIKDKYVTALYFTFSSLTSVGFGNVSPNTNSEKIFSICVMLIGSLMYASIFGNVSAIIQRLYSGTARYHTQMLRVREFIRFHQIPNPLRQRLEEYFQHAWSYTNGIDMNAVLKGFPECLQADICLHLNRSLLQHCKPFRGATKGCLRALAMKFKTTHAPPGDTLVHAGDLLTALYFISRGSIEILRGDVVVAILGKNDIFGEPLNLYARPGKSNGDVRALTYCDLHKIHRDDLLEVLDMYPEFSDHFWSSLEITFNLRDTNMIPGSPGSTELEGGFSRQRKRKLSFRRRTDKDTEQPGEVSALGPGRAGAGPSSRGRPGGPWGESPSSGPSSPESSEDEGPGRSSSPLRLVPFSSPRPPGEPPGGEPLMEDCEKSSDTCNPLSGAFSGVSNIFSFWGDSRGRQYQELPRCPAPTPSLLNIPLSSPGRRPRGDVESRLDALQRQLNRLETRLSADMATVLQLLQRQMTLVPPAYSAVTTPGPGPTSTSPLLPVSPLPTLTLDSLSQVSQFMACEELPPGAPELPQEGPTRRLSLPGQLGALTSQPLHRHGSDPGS
With COc1ccc(/C=C/C(=O)NCC(=O)N/N=C/c2ccc(OC)cc2)cc1 the “hERG current change (%, negative = inhibition) at 10uM” value was 18.2%.
CCN(CC(=O)NCCCn1ccnc1)S(=O)(=O)c1ccc(C)cc1 was tested, and the “hERG current change (%, negative = inhibition) at 10uM” value was -14.8%.
For Cc1ccc(S(=O)(=O)N2CCCCC2)cc1NC(=O)Cn1ccc(C(F)(F)F)n1, the “hERG current change (%, negative = inhibition) at 10uM” value was -8.63%.
For CCOC(=O)c1sc(NC(=O)C2=COCCO2)c(C#N)c1C, the “hERG current change (%, negative = inhibition) at 10uM” value was 3.71%.
In the case of CCOC(=O)C1=C(COC(=O)CCNS(=O)(=O)c2ccc(C)c(C)c2)NC(=O)NC1C (stereo not drawn), the “hERG current change (%, negative = inhibition) at 10uM” value is reported as -16.1%.
In the case of O=C(NCCCNC(=O)c1cc(Cl)ccc1Cl)c1cnccn1, the “hERG current change (%, negative = inhibition) at 10uM” value is reported as 8.25%.
O=C(COC(=O)C1(c2ccccc2F)CCCC1)NCc1ccc2c(c1)OCO2 was tested, and the “hERG current change (%, negative = inhibition) at 10uM” value was -6.33%.
O=C(Cc1ccc(Br)cc1)OCC(=O)N1CCc2ccccc2C1 was tested, and the “hERG current change (%, negative = inhibition) at 10uM” value was 5.68%.
For CCCS(=O)(=O)N1CCN(c2ccccc2F)CC1, the “hERG current change (%, negative = inhibition) at 10uM” value was 10.3%.
With Cc1cc(C=O)c(C)n1C1CCCCC1 the “hERG current change (%, negative = inhibition) at 10uM” value was -4.74%.
In the case of COc1cc2c(cc1OC)CC(C(=O)NCc1ccccc1)NC2 (stereo not drawn), the “hERG current change (%, negative = inhibition) at 10uM” value is reported as 7.81%.
With Cc1cc(C)cc(C(=O)NCC(=O)NCCc2c[nH]c3ccccc23)c1 the “hERG current change (%, negative = inhibition) at 10uM” value was 25.1%.
COc1cc(S(=O)(=O)Nc2ncn[nH]2)ccc1Cl was tested, and the “hERG current change (%, negative = inhibition) at 10uM” value was 18.3%.
For Cc1ccc(C(C(=O)NCc2ccco2)N(C(=O)CNC(=O)c2cccs2)c2ccc(C)cc2)cc1 (stereo not drawn), the “hERG current change (%, negative = inhibition) at 10uM” value was 27.3%.
In the case of O=C(Cn1c(S(=O)(=O)Cc2ccccc2)nc2ccccc21)N1CCCCC1, the “hERG current change (%, negative = inhibition) at 10uM” value is reported as -6.34%.
Cc1ccc(S(=O)(=O)NC(=O)c2cccc(C)c2)cc1 was tested, and the “hERG current change (%, negative = inhibition) at 10uM” value was -1.32%.
For CCOc1c(C)cnc2c1c(=O)n(Cc1ccccc1Cl)c(=O)n2C, the “hERG current change (%, negative = inhibition) at 10uM” value was 9.79%.
In the case of COc1cc(OC)c(OC)cc1/C=C1/C(=O)N=C(N)N1C, the “hERG current change (%, negative = inhibition) at 10uM” value is reported as -16.1%.
For Cc1cccc(N2C(=O)/C(=C\c3ccc(OC(F)F)cc3)c3ccccc3C2=O)c1, the “hERG current change (%, negative = inhibition) at 10uM” value was 5.85%.
For CCN(C(=O)CN1C(=O)NC(CCSC)C1=O)C1CCS(=O)(=O)C1 (stereo not drawn), the “hERG current change (%, negative = inhibition) at 10uM” value was -48.1%.
COC(=O)c1ccc2c(=O)n(Cc3ccc(C(=O)NCCCN4CCC(C)CC4)cc3)c(=S)[nH]c2c1 was tested, and the “hERG current change (%, negative = inhibition) at 10uM” value was 7.54%.
With Cc1ccccc1CNC(=O)c1cc(COc2ccc(F)cc2F)on1 the “hERG current change (%, negative = inhibition) at 10uM” value was 44.5%.
With Cc1ccc(NC(=O)CSc2nncn2-c2ccccn2)cc1Cl the “hERG current change (%, negative = inhibition) at 10uM” value was 5.29%.
With Cc1cc(S(=O)(=O)N2CC(=O)N(CCc3ccccc3)C(=O)C2)ccc1F the “hERG current change (%, negative = inhibition) at 10uM” value was 17.3%.
Cc1cccc(N2C(=O)C(Cl)=C(Nc3c(C)n(C)n(-c4ccccc4)c3=O)C2=O)c1C was tested, and the “hERG current change (%, negative = inhibition) at 10uM” value was 15.4%.
With COc1ccc(-c2oc3ccccc3c2C(=O)OCc2ccccc2)cc1 the “hERG current change (%, negative = inhibition) at 10uM” value was 15.1%.
In the case of Cc1c(S(=O)(=O)Nc2cccc(Cl)c2)c(=O)n(C)c(=O)n1C, the “hERG current change (%, negative = inhibition) at 10uM” value is reported as 5.03%.
In the case of CC(C)(C)C(=O)OC/C(N)=N/OC(=O)c1ccccc1, the “hERG current change (%, negative = inhibition) at 10uM” value is reported as -3.07%.
CN(C(=O)COC(=O)c1ccc([N+](=O)[O-])cc1Cl)C1CCCCC1 was tested, and the “hERG current change (%, negative = inhibition) at 10uM” value was -29.1%.
CCCCCCCc1c(C#N)c(N)[nH]c(=S)c1C#N was tested, and the “hERG current change (%, negative = inhibition) at 10uM” value was 17.1%.
With Cc1cc(NC(=O)CCC(=O)N(CC(=O)NC2CCCC2)c2ccc(Cl)c(Cl)c2)no1 the “hERG current change (%, negative = inhibition) at 10uM” value was -18.2%.
With CC(=O)Nc1cccc(NC(=O)CS(=O)(=O)c2cn(CC(=O)N(C(C)C)C(C)C)c3ccccc23)c1 the “hERG current change (%, negative = inhibition) at 10uM” value was 15.8%.
COc1cc(C2Sc3ccccc3NC3=C2C(=O)OC3)cc(OC)c1OC (stereo not drawn) was tested, and the “hERG current change (%, negative = inhibition) at 10uM” value was 0.317%.
With COc1ccc(CNC(=O)CSc2nnc(NC(=O)C3CC3)s2)cc1 the “hERG current change (%, negative = inhibition) at 10uM” value was 0.952%.
With CCCCCC(=O)N1CC2(CC(c3cccc(NC(=O)CC)c3)=NO2)C[C@H]1C(N)=O (stereo partly drawn) the “hERG current change (%, negative = inhibition) at 10uM” value was -11.6%.
In the case of C/C(=C\C(=O)c1cccnc1)Nc1ccc(O)cc1, the “hERG current change (%, negative = inhibition) at 10uM” value is reported as -6.35%.
O=Cc1cccc(OC(=O)/C=C/c2ccco2)c1 was tested, and the “hERG current change (%, negative = inhibition) at 10uM” value was 15.5%.
O=C(NC1CCCC1)c1ccc(CS(=O)Cc2ccccc2Cl)o1 (stereo not drawn) was tested, and the “hERG current change (%, negative = inhibition) at 10uM” value was -19.9%.
In the case of CCOc1ccccc1NC(=O)CN(c1ccc(OC)cc1)S(=O)(=O)c1c(C)noc1C, the “hERG current change (%, negative = inhibition) at 10uM” value is reported as -17.9%.
With CCCCCCCCCCCCCCCC[n+]1ccc(C(N)=O)cc1.[Br-] the “hERG current change (%, negative = inhibition) at 10uM” value was 10%.
With Cc1cc(NC(=O)CSc2nnc(C3COc4ccccc4O3)n2C)no1 (stereo not drawn) the “hERG current change (%, negative = inhibition) at 10uM” value was -1.23%.
For COc1ccc(C(=O)NC2CC(C)(C)Cc3occc32)cc1 (stereo not drawn), the “hERG current change (%, negative = inhibition) at 10uM” value was -28.1%.
With Cc1cc(C)c(NC(=O)COc2nncc3ccccc23)c(C)c1 the “hERG current change (%, negative = inhibition) at 10uM” value was 3.48%.
In the case of COc1ccc(CN2CCSCC2)c(OC)c1C, the “hERG current change (%, negative = inhibition) at 10uM” value is reported as 13.5%.
For S=c1[nH]cnc2scc(-c3ccc(Br)cc3)c12, the “hERG current change (%, negative = inhibition) at 10uM” value was 0.154%.
With O=C(NNC(=O)c1cccs1)c1ccc(Br)o1 the “hERG current change (%, negative = inhibition) at 10uM” value was 15.8%.
With COCCN(CCOC)Cc1cc(=O)oc2cc3c(cc12)CCC3 the “hERG current change (%, negative = inhibition) at 10uM” value was 0.484%.
With O=C(O)/C(=C\c1cccc(C(F)(F)F)c1)c1ccc(S(=O)(=O)N2CCCC2)s1 the “hERG current change (%, negative = inhibition) at 10uM” value was 5.74%.
In the case of COc1cccc(CN2CCNC(=O)C2CC(=O)N(C)CCC2CCOCC2)c1 (stereo not drawn), the “hERG current change (%, negative = inhibition) at 10uM” value is reported as 8.75%.
With O=C(CSc1ccc2c(c1)OCCO2)NCC1CCCO1 (stereo not drawn) the “hERG current change (%, negative = inhibition) at 10uM” value was 3.76%.
Cc1ccc(N(C(=O)c2ccccn2)C2(C(=O)NC3CCCC3)CCCCC2)cc1 was tested, and the “hERG current change (%, negative = inhibition) at 10uM” value was 6.1%.
For COc1ccc(CCNC(=O)Nc2ccccc2[N+](=O)[O-])cc1, the “hERG current change (%, negative = inhibition) at 10uM” value was -15.2%.
For CCOC(=O)Cc1csc(NC(=O)Nc2cccc(OC)c2)n1, the “hERG current change (%, negative = inhibition) at 10uM” value was 4.13%.
In the case of O=S(=O)(NC1CCN(S(=O)(=O)c2c(F)cccc2F)C1)c1ccc2c(c1)OCCO2 (stereo not drawn), the “hERG current change (%, negative = inhibition) at 10uM” value is reported as -5.32%.
For S=C(NCc1ccco1)Nc1cccc(Cl)c1, the “hERG current change (%, negative = inhibition) at 10uM” value was -6.16%.
With CCOc1cc(/C=N/N=C2/NC(=O)C(CC(=O)O)S2)ccc1OCc1ccc(Cl)cc1 (stereo not drawn) the “hERG current change (%, negative = inhibition) at 10uM” value was 12.3%.
With COc1cc(/C=C/C(=O)N[C@@H](Cc2c[nH]c3ccccc23)C(=O)O)ccc1O the “hERG current change (%, negative = inhibition) at 10uM” value was 16.5%.
